{
  "source": "patent US11077120B2",
  "about": "“Prostaglandin receptor EP2 antagonists, derivatives, compositions, and uses related thereto” (Emory University, priority 2014, dated 2021)",
  "key": {"human EP2 receptors": {"target": "T1, human EP2 receptors (Homo sapiens, UniProt P43116)", "T1 construct": "expressed in transfected cells", "T1 sequence (P43116 whole entry)": "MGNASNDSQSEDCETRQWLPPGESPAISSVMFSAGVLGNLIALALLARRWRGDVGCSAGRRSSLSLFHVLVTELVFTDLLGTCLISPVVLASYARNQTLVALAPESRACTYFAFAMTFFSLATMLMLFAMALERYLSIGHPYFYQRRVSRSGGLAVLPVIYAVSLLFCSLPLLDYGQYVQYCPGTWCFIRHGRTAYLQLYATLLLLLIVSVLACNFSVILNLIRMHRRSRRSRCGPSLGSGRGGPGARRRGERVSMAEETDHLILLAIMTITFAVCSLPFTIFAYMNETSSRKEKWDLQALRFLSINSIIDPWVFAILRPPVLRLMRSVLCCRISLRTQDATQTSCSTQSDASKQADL", "experiment": "cell-based cAMP TR-FRET assay, rightward shift of PGE2 concentration response curve (Schild KB), EP2", "details": "for Kb: Table 1, Schild KB from single antagonist concentration 1 μM, average of 2-3 measurements in duplicate; for mechanism of antagonism of EP2: Schild regression analysis", "protocol": "KB value indicates the antagonist concentration required for a twofold rightward shift in the PGE2 dose-response curve. Thus, a lower KB value indicates a higher inhibitory potency.\nThe synthesis was carried out starting from commercially available 2-methyl indole or 2-trifluoromethyl indoles (11a-c), which on treatment with bromoacetonitrile provided intermediates (12a-c), which then were subjected to lithium aluminum hydride to reduce cyanide to amines. […] Synthesized derivatives were tested by using a cAMP-derived TR-FRET assay, at single concentration (1 μM) to observe a rightward shift of PGE2 (an EP2 agonist) concentration response curve in a C6G cell line that overexpresses human EP2 receptors.\nA lower KB value indicates a higher inhibitory potency.\nIntracellular cAMP was measured with a cell-based homogeneous time-resolved fluorescence resonance energy transfer (TR-FRET) method (Cisbio Bioassays). […] Endogenous cAMP produced by cells competes with labeled cAMP for binding to the cAMP antibody and thus reduces the FRET signal. Cells stably expressing human DP1, EP2, EP4, or IP receptors were seeded into 384-well plates in 30 μl complete medium (4,000 cells/well) and grown overnight. The medium was carefully withdrawn and 10 μl Hanks' Buffered Salt Solution (HBSS) (Hyclone) containing 20 μM rolipram was added into the wells to block phosphodiesterases. The cells were incubated at room temperature for 0.5-1 h and then treated with vehicle or test compound for 10 min before addition of increasing concentrations of appropriate agonist: BW245C for DP1, PGE2 for EP2 and EP4, or iloprost for IP. The cells were incubated at room temperature for 40 min, then lysed in 10 μl lysis buffer containing the FRET acceptor cAMP-d2 and 1 min later another 10 μl lysis buffer with anti-cAMP-Cryptate was added. After 60-90 min incubation at room temperature, the FRET signal was measured by an Envision 2103 Multilabel Plate Reader (PerkinElmer Life Sciences) with a laser excitation at 337 nm and dual emissions at 665 nm and 590 nm for d2 and Cryptate (50 s delay), respectively. The FRET signal was expressed as: F665/F590×10^4."}, "[1]": {"experiment": "liver microsomal stability, mouse", "details": "amide series"}, "[2]": {"experiment": "liver microsomal stability, human", "details": "amide series"}},
  "note": "For some assays here: At least one structure is not confirmed: it was looked up by name or label, or the drawing left a doubt. Some of these results come from one statement about several compounds together.",
  "data": [
    {"smiles": "CC(=O)Nc1ccc(C(=O)NCCc2c(C)[nH]c3ccccc23)cc1", "note": "[Compound 8x]", "values": [
      {"measurement": "Kb", "setting": "human EP2 receptors", "value": 138, "unit": "nM"}
    ]},
    {"smiles": "Cc1cc2ccccc2n1CCNC(=O)c1ccc(N2CCC(C(=O)O)CC2)cc1", "note": "[Compound 7n]", "values": [
      {"measurement": "mechanism of antagonism of EP2", "setting": "human EP2 receptors", "value": "competitive"},
      {"measurement": "% remaining at 60 minutes in mouse liver fractions", "setting": "[1]", "value": "greater than 50%"},
      {"measurement": "% remaining at 60 min in human liver microsomes", "setting": "[2]", "value": "greater than 50%"}
    ]},
    {"smiles": "Cc1cc2ccccc2n1CCNC(=O)c1ccc(C#N)cc1", "note": "[Compound 6s]", "values": [
      {"measurement": "Kb", "setting": "human EP2 receptors", "value": 140, "unit": "nM"}
    ]},
    {"smiles": "Cc1cc2ccccc2n1CCNC(=O)c1ccc(-c2nnn[nH]2)cc1", "note": "[Compound 7z]", "values": [
      {"measurement": "mechanism of antagonism of EP2", "setting": "human EP2 receptors", "value": "competitive"},
      {"measurement": "% remaining at 60 minutes in mouse liver fractions", "setting": "[1]", "value": "greater than 50%"},
      {"measurement": "% remaining at 60 min in human liver microsomes", "setting": "[2]", "value": "greater than 50%"}
    ]},
    {"smiles": "Cc1cc2ccccc2n1CCNC(=O)c1ccc(-n2cnnn2)cc1", "note": "[Compound 7x]", "values": [
      {"measurement": "% remaining at 60 minutes in mouse liver fractions", "setting": "[1]", "value": "> 7", "unit": "%"}
    ]},
    {"smiles": "Cc1cc2ccccc2n1CCNC(=O)c1ccc(N2CCCCC2)cc1", "note": "[Compound 7k, N-(2-(2-Methyl-1H-indol-1-yl)ethyl)-4-(piperidin-1-yl)benzamide]", "values": [
      {"measurement": "% remaining at 60 minutes in mouse liver fractions", "setting": "[1]", "value": "> 7", "unit": "%"}
    ]},
    {"smiles": "Cc1cc2ccccc2n1CCNC(=O)c1cnc(Nc2ccccc2)nc1", "note": "[Compound 8m]", "values": [
      {"measurement": "% remaining at 60 minutes in mouse liver fractions", "setting": "[1]", "value": "> 7", "unit": "%"}
    ]},
    {"smiles": "Cc1cc2ccccc2n1CCNC(=O)c1ccc(N2CCCC2)cc1", "note": "[Compound 7j, N-(2-(2-Methyl-1H-indol-1-yl)ethyl)-4-(pyrrolidin-1-yl)benzamide]", "values": [
      {"measurement": "% remaining at 60 minutes in mouse liver fractions", "setting": "[1]", "value": "> 7", "unit": "%"}
    ]},
    {"smiles": "Cc1cc2ccccc2n1CCNC(=O)c1ccc(CNC(=O)OC(C)(C)C)cc1", "note": "[Compound 6x]", "values": [
      {"measurement": "fold higher potency than the free para-amino derivative (6i)", "setting": "human EP2 receptors", "value": 2.4, "unit": "fold"}
    ]},
    {"smiles": "COc1cc(C(=O)NCCn2c(C)cc3ccccc32)cc(OC)c1OC", "note": "[Compound 6a]", "values": [
      {"measurement": "EP2 activity (in words)", "setting": "human EP2 receptors", "value": "no EP2 activity"}
    ]}
  ]
}
